Reference: publication PMC2999557
No constants are given. Whether binding was seen depends on the method and setting. Binding seen in cells or lysates may run through a third protein. Some entries that bind do so weakly or less than the wild type.

Sequences of proteins named here, by UniProt entry; tags and fusion partners are left off. A change or cut given only in a name is not applied to a line headed by its entry. Residues count along the entry.
UniProt Q96GC6: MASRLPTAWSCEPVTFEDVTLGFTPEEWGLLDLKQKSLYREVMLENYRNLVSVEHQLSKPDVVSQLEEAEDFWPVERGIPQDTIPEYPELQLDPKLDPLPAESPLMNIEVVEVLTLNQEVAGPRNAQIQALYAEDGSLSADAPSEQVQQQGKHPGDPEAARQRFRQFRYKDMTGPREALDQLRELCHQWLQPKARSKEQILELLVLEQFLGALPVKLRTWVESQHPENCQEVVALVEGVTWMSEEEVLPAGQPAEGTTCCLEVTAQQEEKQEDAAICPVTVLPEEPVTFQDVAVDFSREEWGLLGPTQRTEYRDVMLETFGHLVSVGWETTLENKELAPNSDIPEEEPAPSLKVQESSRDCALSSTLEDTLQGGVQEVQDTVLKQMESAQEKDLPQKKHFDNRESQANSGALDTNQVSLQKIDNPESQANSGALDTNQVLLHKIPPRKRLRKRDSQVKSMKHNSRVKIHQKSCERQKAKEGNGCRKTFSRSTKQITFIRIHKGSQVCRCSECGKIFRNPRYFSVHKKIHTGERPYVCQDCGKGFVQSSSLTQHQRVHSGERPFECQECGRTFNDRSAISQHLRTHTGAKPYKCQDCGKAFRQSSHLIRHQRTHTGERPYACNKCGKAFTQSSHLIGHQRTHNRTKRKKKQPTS
GST fusion of the first KRAB domain of human ZNF274 (residues 2-90, KRAB1): residues 2-90 of Q96GC6
GST fusion of the second KRAB domain of human ZNF274 (residues 278-366, KRAB2): residues 278-366 of Q96GC6
UniProt Q96KQ7: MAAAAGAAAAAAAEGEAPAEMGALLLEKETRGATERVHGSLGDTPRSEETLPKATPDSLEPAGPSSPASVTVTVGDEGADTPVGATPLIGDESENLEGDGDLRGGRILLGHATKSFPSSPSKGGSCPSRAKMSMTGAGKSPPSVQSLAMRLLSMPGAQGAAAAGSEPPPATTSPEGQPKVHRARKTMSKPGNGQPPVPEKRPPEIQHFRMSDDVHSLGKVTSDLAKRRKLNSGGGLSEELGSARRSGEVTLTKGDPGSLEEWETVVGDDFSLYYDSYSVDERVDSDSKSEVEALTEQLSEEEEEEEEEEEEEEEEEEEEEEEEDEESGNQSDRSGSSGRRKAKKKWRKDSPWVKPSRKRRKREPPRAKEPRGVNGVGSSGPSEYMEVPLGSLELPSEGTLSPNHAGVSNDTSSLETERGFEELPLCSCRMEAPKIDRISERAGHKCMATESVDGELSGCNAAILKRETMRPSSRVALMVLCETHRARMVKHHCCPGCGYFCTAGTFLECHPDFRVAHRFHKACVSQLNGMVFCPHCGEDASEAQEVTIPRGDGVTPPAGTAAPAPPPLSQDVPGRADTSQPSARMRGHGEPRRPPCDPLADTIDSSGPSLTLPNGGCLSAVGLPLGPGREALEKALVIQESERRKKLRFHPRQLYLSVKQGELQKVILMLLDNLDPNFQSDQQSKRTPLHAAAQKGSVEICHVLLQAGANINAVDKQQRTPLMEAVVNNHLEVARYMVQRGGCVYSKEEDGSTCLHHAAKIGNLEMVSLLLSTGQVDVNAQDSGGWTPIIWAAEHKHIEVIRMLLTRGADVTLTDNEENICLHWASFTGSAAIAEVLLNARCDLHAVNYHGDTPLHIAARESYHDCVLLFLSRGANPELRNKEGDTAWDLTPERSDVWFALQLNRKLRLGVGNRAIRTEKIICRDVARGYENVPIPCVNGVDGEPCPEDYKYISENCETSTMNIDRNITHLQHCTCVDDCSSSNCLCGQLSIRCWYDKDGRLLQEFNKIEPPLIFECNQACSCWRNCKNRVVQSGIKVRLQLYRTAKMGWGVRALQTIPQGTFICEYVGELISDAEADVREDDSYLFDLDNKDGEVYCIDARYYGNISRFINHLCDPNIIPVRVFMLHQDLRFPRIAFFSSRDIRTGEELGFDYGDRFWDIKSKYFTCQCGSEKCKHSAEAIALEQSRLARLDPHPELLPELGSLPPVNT
UniProt Q13263: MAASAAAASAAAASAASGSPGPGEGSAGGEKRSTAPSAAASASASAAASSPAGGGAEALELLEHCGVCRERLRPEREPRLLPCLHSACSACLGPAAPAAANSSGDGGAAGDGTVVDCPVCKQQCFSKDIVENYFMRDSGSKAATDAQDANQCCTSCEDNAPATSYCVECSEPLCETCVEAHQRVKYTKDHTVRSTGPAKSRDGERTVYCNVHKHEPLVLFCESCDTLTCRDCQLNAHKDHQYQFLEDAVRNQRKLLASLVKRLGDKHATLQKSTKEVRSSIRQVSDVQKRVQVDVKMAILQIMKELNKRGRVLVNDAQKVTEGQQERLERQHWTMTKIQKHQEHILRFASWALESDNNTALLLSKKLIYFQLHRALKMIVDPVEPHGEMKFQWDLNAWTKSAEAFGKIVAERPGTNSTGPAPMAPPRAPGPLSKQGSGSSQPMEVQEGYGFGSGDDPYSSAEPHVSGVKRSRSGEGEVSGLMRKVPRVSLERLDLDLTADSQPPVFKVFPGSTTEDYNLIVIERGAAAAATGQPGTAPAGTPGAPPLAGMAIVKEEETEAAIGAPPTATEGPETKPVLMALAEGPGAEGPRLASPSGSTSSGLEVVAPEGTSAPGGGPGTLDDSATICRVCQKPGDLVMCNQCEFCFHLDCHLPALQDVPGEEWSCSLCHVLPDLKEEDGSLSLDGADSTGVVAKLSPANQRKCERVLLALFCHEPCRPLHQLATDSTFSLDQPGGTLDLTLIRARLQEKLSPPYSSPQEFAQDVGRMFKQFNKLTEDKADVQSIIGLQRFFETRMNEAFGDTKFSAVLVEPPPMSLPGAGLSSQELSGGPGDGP
UniProt O14978, residues 206-299: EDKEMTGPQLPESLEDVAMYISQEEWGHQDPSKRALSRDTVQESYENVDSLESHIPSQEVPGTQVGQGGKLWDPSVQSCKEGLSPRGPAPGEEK
UniProt P21506, residues 2-90: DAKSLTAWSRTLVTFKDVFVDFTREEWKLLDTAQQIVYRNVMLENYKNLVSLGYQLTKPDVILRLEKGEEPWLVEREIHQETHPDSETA

Legend:
[1] = molecular target: ZNF274 (KRAB-ZNF with 5 C2H2 zinc finger domains, a SCAN domain and 2 KRAB domains) (human (endogenous in K562)) (UniProt Q96GC6); assay: co-IP; endogenous proteins, K562 cell lysate (20 mM Tris-HCl pH 8.0, 150 mM NaCl, 2.5 mM EDTA, 0.5% NP-40, 5% glycerol); 5 µg antibody (control IgG, KAP1, ZNF274, SETDB1 or G9a), 5 hours at 4°C, protein G-agarose; western blot
[2] = molecular target: G9a/KMT1C histone methyltransferase (human (endogenous in K562)) (UniProt Q96KQ7); assay: as above
[3] = molecular target: TRIM28 (KAP1) corepressor (human (endogenous in K562)) (UniProt Q13263); assay: as above
[4] = molecular target: GST fusion of the first KRAB domain of human ZNF274 (residues 2-90, KRAB1) (human) (UniProt Q96GC6); assay: pull-down; GST-KRAB domains prebound to glutathione-agarose beads, incubated 4 hours at 4°C with undialyzed K562 nuclear extract in 10 mM Hepes-NaOH pH 7.9, 0.3 M KCl, 1.5 mM MgCl2, 0.5 mM PMSF, 0.1% Triton X-100; washed 7 times with 0.5 M KCl; eluted with glutathione; western blot for KAP1; only the target purified
[5] = molecular target: GST fusion of the KRAB domain of human ZNF263 (residues 206-299) (human) (UniProt O14978); assay: as above
[6] = molecular target: GST fusion of the second KRAB domain of human ZNF274 (residues 278-366, KRAB2) (human) (UniProt Q96GC6); assay: as above
[7] = molecular target: GST fusion of the KRAB domain of human ZNF10 (residues 2-90) (human) (UniProt P21506); assay: as above

Substance	binding [1]	binding [2]	binding [3]	binding [4]	binding [5]	binding [6]	binding [7]
G9a/KMT1C histone methyltransferase (from UniProt Q96KQ7 1-1210)	no binding						
ZNF274 (KRAB-ZNF with 5 C2H2 zinc finger domains, a SCAN domain and 2 KRAB domains) (from UniProt Q96GC6 1-653)		no binding	binds				
TRIM28 (KAP1) corepressor (from UniProt Q13263 1-835)	binds			binds	no binding	binds	binds
